Reference: a collection of fitness landscapes (doi:10.1016/j.celrep.2020.107928)
Over roughly 81,000 sequences, “one-hybrid fitness for binding NBS DNA” has its median near -0.1; the highest 2% begin near 0.36. The list shows a part of the results.

B1: Caulobacter ParB omega fusion; a variant is named by its letters at X, in order, B8GW30 (parent)
chain: MESVVVGEPGMSEGRRGLGRGLSALLGEVDAAPAQAPGEQLGGSREAPIEILQRNPDQPRRTFREEDLEDLSNSIREKGVLQPILVRPSPDTAGEYQIVAGERAWRAAQRAGLKTVPIMVRELDDLAVLEIGIIENVQRADLNVLEEALSYKVLMEKFERTQENIAQTIGKSXSHVANXMRLLXLPDEVQSYLVSGELTAXHARAIAAAADPVALAKQIIEGGLSVRETEALARKAPNLSAGKSKGGRPPRVKDTDTQALESDLSSVLGLDVSIDHRGSTGTLTITYATLEQLDDLCNRLTRGI

Variants of: B1
Assay: one-hybrid fitness for binding NBS DNA (the Noc-binding site; scaled: cognate 1, non-cognate 0); higher = stronger binding
Settings: with NBS DNA site
How it was run: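 Bacterial one-hybrid selection in E. coli USO rpoZ- hisB- pyrF- with a HIS3 reporter carrying the site 19 bp from the promoter, screening Caulobacter ParB libraries with four specificity codons randomised (NNS). Cells grew 48 hours at 37°C on M9-minus-histidine plus 0.1 mM IPTG and 5 mM 3-AT. Plasmids before and after selection were Illumina-sequenced, three replicate libraries pooled, and variants under 10 reads dropped. Fitness is the log change in variant-to-wild-type read ratio, rescaled to cognate 1, non-cognate 0.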

Row | Variant | one-hybrid fitness for binding NBS DNA
1 | SFQP | ≤ 0.2
2 | MSNY | ≤ 0.2
3 | KTHE | ≤ 0.2
4 | KMYS | ≤ 0.2
5 | EANW | ≤ 0.2
6 | ITHY | ≤ 0.2
7 | YIAE | ≤ 0.2
8 | AYTW | ≤ 0.2
9 | FNLV | ≤ 0.2
10 | LAKQ | ≤ 0.2
11 | RRPY | 0.237
12 | HWKY | ≤ 0.2
13 | HAHF | ≤ 0.2
14 | WYNR | ≤ 0.2
15 | SHCL | ≤ 0.2
16 | TNNK | ≤ 0.2
17 | HNLI | ≤ 0.2
18 | VYHC | ≤ 0.2
19 | AEQT | ≤ 0.2
20 | LTVA | ≤ 0.2
21 | ARET | ≤ 0.2
22 | HCKG | ≤ 0.2
23 | MPCR | ≤ 0.2
24 | FAFT | 0.242
25 | YFVN | ≤ 0.2

Row | Variant | one-hybrid fitness for binding NBS DNA
26 | QCMN | ≤ 0.2
27 | GYLT | ≤ 0.2
28 | RGTD | ≤ 0.2
29 | LRGM | ≤ 0.2
30 | EDEC | ≤ 0.2
31 | LITG | ≤ 0.2
32 | STIA | ≤ 0.2
33 | NMMY | ≤ 0.2
34 | TTKD | ≤ 0.2
35 | VLSS | ≤ 0.2
36 | VPKG | ≤ 0.2
37 | VIET | ≤ 0.2
38 | RRVQ | 0.428
39 | DSEV | ≤ 0.2
40 | VGPW | ≤ 0.2
41 | VCQW | ≤ 0.2
42 | TMPV | ≤ 0.2
43 | TIVI | ≤ 0.2
44 | QAPI | ≤ 0.2
45 | WCGR | ≤ 0.2
46 | SPSH | ≤ 0.2
47 | LFHS | ≤ 0.2
48 | MNMR | ≤ 0.2
49 | AVYM | ≤ 0.2
50 | AWIG | ≤ 0.2

Row | Variant | one-hybrid fitness for binding NBS DNA
51 | QKMS | 0.414
52 | SPPP | ≤ 0.2
53 | CAVC | ≤ 0.2
54 | TTDN | ≤ 0.2
55 | QTRI | 0.478
56 | PYSD | ≤ 0.2
57 | AQHN | ≤ 0.2
58 | QMDK | ≤ 0.2
59 | KSVA | ≤ 0.2
60 | WAKC | ≤ 0.2
61 | LNLW | ≤ 0.2
62 | PGSG | ≤ 0.2
63 | QPKP | ≤ 0.2
64 | EQVS | ≤ 0.2
65 | SGAR | ≤ 0.2
66 | SWSM | ≤ 0.2
67 | RKQE | ≤ 0.2
68 | NWRS | ≤ 0.2
69 | LNCP | ≤ 0.2
70 | RGPG | ≤ 0.2
71 | GCSC | ≤ 0.2
72 | SKAS | ≤ 0.2
73 | ECQG | ≤ 0.2
74 | RQVI | ≤ 0.2
75 | PQQQ | ≤ 0.2

Row | Variant | one-hybrid fitness for binding NBS DNA
76 | PRKC | ≤ 0.2
77 | HIIL | ≤ 0.2
78 | GTTV | ≤ 0.2
79 | RWQR | ≤ 0.2
80 | DHDT | ≤ 0.2
81 | MLQL | ≤ 0.2
82 | HDKT | ≤ 0.2
83 | HKSG | ≤ 0.2
84 | RAEL | ≤ 0.2
85 | TIML | ≤ 0.2
86 | SQND | ≤ 0.2
87 | LRNH | ≤ 0.2
88 | PSTI | ≤ 0.2
89 | TDPF | ≤ 0.2
90 | MCKG | ≤ 0.2
91 | VFTG | ≤ 0.2
92 | NRQH | ≤ 0.2
93 | DGQC | ≤ 0.2
94 | GGFC | ≤ 0.2
95 | LRVY | ≤ 0.2
96 | HIVC | ≤ 0.2
97 | NIAV | ≤ 0.2
